# Residue numbers refer to the chain shown, from its start. In names and notes the source's numbering stands. ± gives the standard deviation of the averaged measurements. Laboratory Escherichia coli strains with one amino-acid change in an essential protein, pooled on minimal glucose agar with carbenicillin or gentamicin at twice the control MIC (plus kanamycin and chloramphenicol for the plasmids), 48 h. Fold change of barcode share against drug-free plates; higher = less susceptible. Active = above 20 in both replicates (the paper's putatively resistant). '<' = one read or none on drug, '>' = one read or none on a drug-free plate. Shares are relative, so most strains fall below 1 when a few take over. Listed are strains with at least 15 reads on both drug-free plates, and hits; most hits rest on fewer reference reads. Replicate rank correlation about 0.5. Edits are read from barcodes.
# B1: ftsW I124A (protein)
# chain: MRLSLPRLKMPRLPGFSILVWISTALKGWVMGSREKDTDSLIMYDRTLLWLTFGLAAIGFIMVTSASMPIGQRLTNDPFFFAKRDGVYLILAFILAIITLRLPMEFWQRYSATMLLGSIILLMAVLVVGSSVKGASRWIDLGLLRIQPAELTKLSLFCYIANYLVRKGDEVRNNLRGFLKPMGVILVLAVLLLAQPDLGTVVVLFVTTLAMLFLAGAKLWQFIAIIGMGISAVVLLILAEPYRIRRVTAFWNPWEDPFGSGYQLTQSLMAFGRGELWGQGLGNSVQKLEYLPEAHTDFIFAIIGEELGYVGVVLALLMVFFVAFRAMSIGRKALEIDHRFSGFLACSIGIWFSFQALVNVGAAAGMLPTKGLTLPLISYGGSSLLIMSTAIMMLLRIDYETRLEKAQAFVRGSR
# B2: ftsW V201A (protein)
# chain: B1 chain with A124I, V201A
# B3: ftsW V201W (protein)
# chain: B1 chain with A124I, V201W
# B4: ftsW V201Q (protein)
# chain: B1 chain with A124I, V201Q
# B5: ftsW V201D (protein)
# chain: B1 chain with A124I, V201D
# B6: ftsW V201P (protein)
# chain: B1 chain with A124I, V201P
# B7: argC V75P (protein)
# chain: MLNTLIVGASGYAGAELVTYVNRHPHMNITALTVSAQSNDAGKLISDLHPQLKGIVDLPLQPMSDISEFSPGVDPVFLATAHEVSHDLAPQFLEAGCVVFDLSGAFRVNDATFYEKYYGFTHQYPELLEQAAYGLAEWCGNKLKEANLIAVPGCYPTAAQLALKPLIDADLLDLNQWPVINATSGVSGAGRKAAISNSFCEVSLQPYGVFTHRHQPEIATHLGADVIFTPHLGNFPRGILETITCRLKSGVTQAQVAQVLQQAYAHKPLVRLYDKGVPALKNVVGLPFCDIGFAVQGEHLIIVATEDNLLKGAAAQAVQCANIRFGYAETQSLI
# B8: ftsW I223A (protein)
# chain: B1 chain with A124I, I223A
# B9: ftsW L238A (protein)
# chain: B1 chain with A124I, L238A
# B10: ftsW L238W (protein)
# chain: B1 chain with A124I, L238W
# B11: ftsW L238D (protein)
# chain: B1 chain with A124I, L238D
# B12: argC F77A (protein)
# chain: B7 chain with P75V, F77A
# Target: Escherichia coli (laboratory strain)
# Experiment: barcode share on antibiotic plates over drug-free plates; higher = less susceptible
# Settings: antibiotic: carbenicillin; 2× MIC (3.1 µg/mL)
# Experimental: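 A pool of E. coli strains, each edited to carry one amino-acid change in an essential protein, was grown for 48 h on minimal glucose agar with or without antibiotic; strain barcodes were sequenced; mean of two replicates.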
row,Protein,fold change of barcode share
1,B1,0.191 ± 0.23
2,B2,0.489 ± 0.072
3,B3,0.368 ± 0.061
4,B4,1.29 ± 0.4
5,B5,0.266 ± 0.066
6,B6,0.491 ± 0.042
7,B7,0.274 ± 0.12
8,B8,0.327 ± 0.11
9,B9,0.278 ± 0.06
10,B10,0.276 ± 0.013
11,B11,0.211 ± 0.062
12,B12,0.923 ± 0.72

# Same assay, conditions: antibiotic: gentamicin; 2× MIC (MIC 0.45 µg/mL)
row,Protein,fold change of barcode share
1,B1,< 0.0179
2,B2,0.0062 ± 0.0011
3,B3,0.00678 ± 0.0069
4,B4,0.00622 ± 0.0015
5,B5,0.00466 ± 0.0011
6,B6,0.00723 ± 0.001
7,B7,0.0238 ± 0.018
8,B8,< 0.0156
